According to PubChem BioAssay AID463173 (ICCB-Longwood Screening Facility, Harvard Medical School, 2010):
Screen size: about 52,000 compounds; about 1,700 (3.3%) were called active. Cut-off read from the data, not from the text of the source: active = survival mostly below about 52% (no sharp cut-off); inactive = mostly above about 56%. This is one part of the list.

test system: Wild type; test: S. aureus survival, RN4220 and DeltatarO strains – OD600, teichoic acid synthesis inhibitors, primary screen (AID 463173); details: S. aureus RN4220 wild type/DeltatarO growth, OD600, 18 h, stronger effect = lower value, screened at 18.75 µg/mL (by protocol)

Row | Compound | survival
1 | CC1CCN(C(=O)CN2C(=O)C(C)(C)Oc3ccc(C(=O)NC(C)C)cc32)CC1 | inactive: 99%
2 | N#Cc1c[nH]n2c(NC3CCCC3)c(-c3ccc(Cl)cc3)nc12 | inactive: 51%
3 | Cc1ccc(CNc2nc3ccc(C)cc3n3nnnc23)cc1 | inactive: 93%
4 | CCc1ccc(NC(=O)C(=O)NCCc2sc3nc(-c4ccc(OC)cc4)nn3c2C)cc1 | inactive: 81%
5 | CC(=O)Nc1nc(N(C)C)nc(N(C)C)n1 | inactive: 90%
6 | CN(C)C(=O)NC1C=CS(=O)(=O)C1 (stereo unspecified) | inactive: 102%
7 | CC1=C(C(=O)Nc2ccccc2)C(c2ccc(O)cc2)n2nc(SCc3ccccc3)nc2N1 (stereo unspecified) | inactive: 115%
8 | CCOc1ccccc1NC(=O)N1CCC2(CC1)Oc1ccccc1C(=O)N2Cc1ccccc1F | inactive: 83%
9 | Cc1ccc(NS(=O)(=O)c2ccc(-c3cc(C)no3)cc2)c(Br)c1 | inactive: 78%
10 | Cc1ccc(CCNC(=O)c2c(C)nn(-c3ccc(F)cc3)c2-n2cccc2)cc1 | inactive: 60%
11 | Cc1ccccc1NC(=O)CSc1ccc(-c2cccs2)nn1 | inactive: 119%
12 | O=c1[nH]c(SCc2ccc([N+](=O)[O-])cc2)nc2c1CCCC2 | inactive: 83%
13 | COc1ccc(Cl)cc1NC(=O)CCn1c(=O)oc2ccccc21 | inactive: 63%
14 | COc1ccc(NC(=O)c2cc(C3CC3)nc3c2c(C)nn3-c2ccccc2)cc1OC | inactive: 72%
15 | COc1ccc(NC(=O)Nc2nnc(N(CC(C)C)CC(C)C)s2)c(OC)c1 | inactive: 96%
16 | CCN(C(=O)c1cc2c(s1)-c1ccccc1OC2)c1cccc(C(F)(F)F)c1 | active: 14%
17 | O=C(CSc1nnc(COc2ccccc2)o1)Nc1cc(C(F)(F)F)ccc1Cl | inactive: 66%
18 | Cc1ccc(CNC(=O)Cn2cccc2C(=O)c2ccccc2C)cc1 | inactive: 82%
19 | O=C(Cn1c(-c2cccs2)cc2ccccc21)NCCCN1CCN(c2ccccc2F)CC1 | inactive: 97%
20 | O=C(CSc1nccn1Cc1ccccc1)Nc1ccc2c(c1)OCCO2 | inactive: 68%
21 | Cc1ccc(NC(=O)c2c(NC(=O)C(F)(F)F)sc3c2CCCCC3)cc1 | active: -3%
22 | N#C/C(=C\c1cn(CC(=O)N2CCCC2)c2ccccc12)C(=O)NCc1ccc2c(c1)OCO2 | inactive: 108%
23 | COc1ccc(NC(=O)c2cc3c(C)nn(-c4ccccc4)c3s2)c(OC)c1 | inactive: 63%

Row | Compound | survival
24 | Cc1c(Cl)cccc1Nc1nn2c(=O)c3ccc(C(=O)N(C)Cc4ccccc4)cc3nc2s1 | inactive: 71%
25 | Cc1cc(C)cc(-n2c(SCC(=O)NC3CCCCC3)nc3c([nH]c4ccccc43)c2=O)c1 | inactive: 83%
26 | CCOc1cc(S(=O)(=O)NCCc2c(C)[nH]c3ccc(C)cc23)ccc1Br | inactive: 134%
27 | Cc1ccc(NC(=O)CCS(=O)(=O)c2ccc3c(c2)oc(=O)n3C)c(Br)c1 | inactive: 71%
28 | Cc1ccc2nc(COc3cccc(NC(=O)COc4ccc(F)cc4)c3)cc(=O)n2c1 | inactive: 45%
29 | COc1ccc(-c2nc(CSCC(=O)N3CCN(c4ccccc4)CC3)c(C)o2)cc1 | inactive: 53%
30 | COc1ccc(N2CCN(C(=O)CSCc3ccc(C)cc3)CC2)cc1 | inactive: 130%
31 | CC(=O)c1cccc(NS(=O)(=O)c2cccc(S(=O)(=O)c3ccc(Br)cc3)c2)c1 | inactive: 76%
32 | O=c1[nH]c(SCc2c(F)cccc2Cl)nc2c1CCCC2 | inactive: 91%
33 | c1cncc(C2=Nc3ccccc3C(c3cccnc3)=NN2)c1 | inactive: 107%
34 | O=C(CN1CCN(C2CCCCC2)CC1)N(c1ccccc1)c1ccc(O)cc1 | inactive: 115%
35 | COCCNC(=O)c1[nH]c2cc(C)ccc2c1Sc1ccc(Cl)cc1 | inactive: 87%
36 | COc1ccc(C2=Nn3c([n+](C)c4ccccc43)SC2)cc1 | inactive: 26%
37 | O=C(Nc1cccc(-c2nc3ccccc3o2)c1)c1cccc2c(Cl)cccc12 | inactive: 68%
38 | Cc1c(Cl)cccc1NC(=O)c1cc2nc(-c3ccc4c(c3)OCO4)cc(C(F)(F)F)n2n1 | inactive: 76%
39 | CC1=CC(c2ccccc2)=Nc2ccc(C)cc2N1 | inactive: 103%
40 | O=C(COc1ccccc1)OCc1cc(=O)n2nc(-c3cccs3)sc2n1 | inactive: 75%
41 | CC(C)(C)OC(=O)N1CCC(c2c(C(=O)Nc3ccc4c(c3)OCO4)cnn2-c2ccccc2)CC1 | inactive: 71%
42 | COc1ccc(CNC(=O)c2cnc3ccc(C)cn3c2=O)cc1 | inactive: 90%
43 | Cc1ccccc1NC(=O)c1ccc(N(Cc2ccccc2)S(C)(=O)=O)cc1 | inactive: 69%
44 | CCc1nn(CC(=O)NC(C)CC)c(=O)c2cc3occc3n12 (stereo unspecified) | inactive: 78%
45 | O=C(Nc1ccccc1F)NC1CCN(Cc2nnnn2Cc2ccc(F)cc2)CC1 | inactive: 108%
46 | COc1cccc(OCCn2c(-c3ccc(Br)cc3)nc3ccccc3c2=O)c1 | inactive: 89%

Row | Compound | survival
47 | O=C(NCc1ccc2c(c1)CCN2C(=O)c1ccncc1)c1ccccc1F | inactive: 128%
48 | COc1ccccc1CNc1ncnc2c1nnn2C | inactive: 82%
49 | CCOCCCn1c(=N)c(S(=O)(=O)c2ccc(Cl)cc2)cc2c(=O)n3cccc(C)c3nc21 | inactive: 86%
50 | COC(=O)c1c(-c2cccs2)csc1NC(=O)c1ccc(C(C)C)cc1 | inactive: 74%
51 | COC(=O)c1ccccc1NC(=O)CCS(=O)(=O)c1nc(-c2ccc3c(c2)OCO3)cc(C(F)(F)F)n1 | inactive: 130%
52 | COc1cccc(CNC(=O)Cn2c(=O)oc3cc(S(=O)(=O)N4CCCCCC4)ccc32)c1 | inactive: 146%
53 | COc1ccccc1NC(=O)C(=O)NCC(c1cccnc1)N1CCc2ccccc2C1 (stereo unspecified) | inactive: 82%
54 | O=C(NCc1ccc(F)cc1)c1ccc2oc(=O)n(Cc3ccccc3)c2c1 | active: -4%
55 | COC(=O)c1ccc(NC(=O)CCc2c(C)nn(-c3ccc(N4CCCCC4)nn3)c2C)cc1 | inactive: 83%
56 | NC(=O)CSc1nnc(C2CC2)n1Cc1ccccc1 | inactive: 93%
57 | CC(=O)Nc1nonc1-c1nnc(SCc2ccccc2)n1C | inactive: 81%
58 | COc1ccc(-n2nc(C(=O)Nc3cc(C)ccn3)c3c4ccccc4n(C)c3c2=O)cc1Cl | inactive: 90%
59 | O=c1c2oc3ccccc3c2n(Cc2cccc(F)c2)c(=O)n1Cc1ccc2c(c1)OCO2 | inactive: 86%
60 | COC(=O)c1cccc(CN2C(=O)SC(Nc3ccc(C)cc3)C2=O)c1 (stereo unspecified) | inactive: 71%
61 | Cc1ccccc1CNC(=O)C(=O)NCC(c1cccs1)S(=O)(=O)c1cccs1 (stereo unspecified) | inactive: 115%
62 | C=Cc1ccc(Cn2c(SCC(=O)N3CCN(c4ccc(F)cc4)CC3)nc3ccccc32)cc1 | inactive: 75%
63 | CCc1ccc(NC(=O)Cn2c(=O)c3cc(Cl)ccc3n3nncc23)cc1 | inactive: 92%
64 | CCOc1ccc(-c2cc(C(=O)NCCc3ccc(OC)c(OC)c3)[nH]n2)cc1 | inactive: 73%
65 | C=CCn1c2ccccc2c2ccccc21 | inactive: 80%
66 | CN1CC(=O)N(CC(=O)Nc2ccc(OC(F)(F)F)cc2)c2ccccc2C1=O | inactive: 69%
67 | Cc1ccc(C)c(C(C)c2ccc(C)nc2)c1 (stereo unspecified) | inactive: 119%
68 | COc1cc(C2CC(=O)Nc3c2c(=O)n(C)c2ncnn32)cc(OC)c1OC (stereo unspecified) | inactive: 143%
69 | CCOC(=O)c1c(NC(=O)c2cc(CC)on2)sc(C(C)=O)c1C | inactive: 80%

Row | Compound | survival
70 | Cc1cccc(NC(=O)/C(C#N)=C/c2ccc(C)o2)c1 | inactive: 77%
71 | CCOC(=O)c1ccc(NC(=O)CCc2nc3cccnc3n2Cc2cccs2)cc1 | inactive: 82%
72 | Cc1ccc(S(=O)(=O)c2cn(CC(=O)Nc3ccc(Cl)cc3)c3ccc(F)cc3c2=O)cc1C | inactive: 56%
73 | O=S(=O)(NC1CCCC1)c1ccc(Br)cc1 | inactive: 116%
74 | S=c1nc[nH]c2c1oc1ccccc12 | inactive: 96%
75 | CC(=O)c1ccc(N2CCN(c3ccc4cc(S(=O)(=O)N5CCC(C)CC5)ccc4n3)CC2)cc1 | inactive: 71%
76 | COc1ccc(CCN2CCC(CNC(=O)c3cnn(-c4cccc(Cl)c4)c3C3CCN(C(=O)OC(C)(C)C)CC3)CC2)cc1 | inactive: 92%
77 | Cc1cccc(Cn2c(Cc3ccccc3)nc3ccccc32)c1 | active: 29%
78 | O=C(CN1c2ccccc2S(=O)(=O)c2ccccc21)Nc1cccc(C(F)(F)F)c1 | inactive: 88%
79 | COc1ccc(N2CCN(C(=O)C3CCN(c4nc5ccc(C)cc5[nH]4)CC3)CC2)cc1 | inactive: 72%
80 | CSc1ccc(CCNC(=O)c2c(C)oc3ncn(C)c(=O)c23)cc1 | active: -4%
81 | CCOC(=O)c1cnc(N2CCN(c3ccc(OC)cc3)CC2)c2ccccc12 | inactive: 89%
82 | COc1ccccc1N1CCN(c2ncnc3c2c(-c2ccccc2)cn3-c2cccc(C)c2)CC1 | inactive: 84%
83 | Cc1cc(C)n(CC(=O)n2c3ccccc3c3ccccc32)n1 | inactive: 96%
84 | CC1CCN(S(=O)(=O)c2csc(C(N)=O)c2)CC1 | inactive: 87%
85 | CCN1CCN(c2ncnc3c2cnn3-c2cc(Cl)ccc2C)CC1 | inactive: 134%
86 | CCOC(=O)c1c(S(=O)(=O)NCC(=O)N(C)Cc2ccccc2)c(C)n(C)c1C | inactive: 80%
87 | O=C(CSc1oc(-c2ccc(F)cc2)nc1S(=O)(=O)c1ccc(Br)cc1)NC1CCCCC1 | inactive: 68%
88 | CCCOc1ccc(C2c3c(oc4ccc(F)cc4c3=O)C(=O)N2CCc2ccc(OC)cc2)cc1 (stereo unspecified) | inactive: 62%
89 | Cc1ccc(CSc2nc3cccnc3n2Cc2ccc(C(=O)NC3CCCCC3)cc2)cc1 | inactive: 71%
90 | CCOc1ccc2c(c1)c(=O)c(S(=O)(=O)c1ccc(C)cc1)cn2Cc1ccccc1Cl | inactive: 92%
91 | CC(=O)Nc1nonc1-c1nnc(SCC(=O)Nc2ccc(C)c(Cl)c2)n1C | inactive: 88%
